Common to all, as to assay: cell-based or functional assay
Assay [1] addresses hemagglutinin (HA) of influenza virus H5N1 A/Vietnam/1194/04 (influenza A virus).
For assay [2], the target named is hemagglutinin (HA) of influenza virus H2N2 A/Guiyang/1/57 (influenza A virus).
Assay [3] deals with hemagglutinin (HA) of influenza virus H7N9 A/Anhui/1/13 (influenza A virus).
In assay [4] the target is hemagglutinin (HA) of influenza virus H3N2 A/Wisconsin/67/05 (influenza A virus).
Assay [5] deals with hemagglutinin (HA) of influenza virus H2N2 A/WF/HK/MPU3156/05 (influenza A virus).
Assay [6] addresses hemagglutinin (HA) of influenza virus H3N2 A/Brisbane/10/07 (influenza A virus).
Assay [7] concerns the target hemagglutinin (HA) of influenza virus H1N1 A/Puerto Rico/8/34-MA (influenza A virus).
In assay [8] the target is hemagglutinin (HA) of influenza virus B/Florida/04/06 (Yamagata) (influenza B virus).
For assay [9], the target named is hemagglutinin (HA) of influenza virus H1N1 A/New Caledonia/20/99 (influenza A virus).
Assay [10] addresses hemagglutinin (HA) of influenza A/Anhui/1/13 (H7N9) (influenza A virus).
Assay [11] concerns the target hemagglutinin (HA) of influenza A/Eurasian Wigeon/MPH571/08 (H8N4) (influenza A virus).
Assay [12] concerns the target hemagglutinin (HA) of influenza B/Malaysia/2506/04 (Victoria) (influenza B virus).
Assay [13] addresses hemagglutinin (HA) of influenza A/Brisbane/59/07 (H1N1) (influenza A virus).
The target of assay [14] is hemagglutinin (HA) of influenza B/Harbin/7/94 (Yamagata) (influenza B virus).
The target in assay [15] is hemagglutinin (HA) of influenza A/PR8 H5N1 HK97 (H5N1) (influenza A virus).
For assay [16], the target named is hemagglutinin (HA) of influenza A/Panama/2007/99 (H3N2) (influenza A virus).
Assay [17] deals with hemagglutinin (HA) of influenza A/Fukui/45/04 (H3N2) (influenza A virus).
In assay [18] the target is hemagglutinin (HA) of influenza A/Christchurch/16/10 (H1N1) (influenza A virus).
In assay [19] the target is hemagglutinin (HA) of influenza B/Florida/04/06 (Yamagata) (influenza B virus).
Assay [20] deals with hemagglutinin (HA) of influenza A/Perth/16/09 (H3N2) (influenza A virus).
Assay [21] deals with hemagglutinin (HA) of influenza A/Northern Pintail/MPC2085/07 (H11N9) (influenza A virus).
The target in assay [22] is hemagglutinin (HA) of influenza A/Brisbane/10/07 (H3N2) (influenza A virus).
In assay [23] the target is hemagglutinin (HA) of influenza A/California/07/09 (H1N1) (influenza A virus).
Assay [24] addresses hemagglutinin (HA) of influenza A/Shanghai/2/13 (H7N9) (influenza A virus).
For assay [25], the target named is hemagglutinin (HA) of influenza A/Johannesburg/33/94 (H3N2) (influenza A virus).
Assay [26] has as its target hemagglutinin (HA) of influenza A/Vietnam/1194/04 (H5N1) (influenza A virus).
For assay [27], the target named is hemagglutinin (HA) of influenza A/Solomon Islands/3/2006 (IVR 145) (H1N1) (influenza A virus).
Assay [28] concerns the target hemagglutinin (HA) of influenza A/NIBRG/60 (A/mallard/Netherlands/12/00) (H7N3) (influenza A virus).
Assay [29] has as its target hemagglutinin (HA) of influenza B/Massachusetts/02/12 (Yamagata) (influenza B virus).
The target in assay [30] is hemagglutinin (HA) of influenza A/Victoria/210/09 (H3N2) (influenza A virus).
Assay [31] has as its target hemagglutinin (HA) of influenza A/WF/HK/MPA892/06 (H4) (influenza A virus).
Assay [32] concerns the target hemagglutinin (HA) of influenza A/Wisconsin/67/05 (H3N2) (influenza A virus).
For assay [33], the target named is hemagglutinin (HA) of influenza A/New Caledonia/20/99 (H1N1) (influenza A virus).
Assay [34] has as its target hemagglutinin (HA) of influenza A/Hiroshima/52/05 (H3N2) (influenza A virus).

B1: MD2605 (Fc fusion)
chain: EVQLVESGGGLVQPGGSLRLSCAVSISIFDIYAMDWYRQAPGKQRDLVATSFRDGSTNYADSVKGRFTISRDNAKNTLYLQMNSLKPEDTAVYLCHVSLYRDPLGVAGGMGVYWGKGALVTVSSAAA[gap - human IgG1 Fc]
As for B1, the average neutralization titer in [1] stood at 8.4 nM; in [2], 23.7 nM; in assay [3] it was 190 nM; in [4] it was 37.8 nM; in assay [5], 13.3 nM; in assay [6] it was 25.1 nM.

B2: MD2607 (Fc fusion)
chain: EVQLVESGGGLVQPGGSLRLSCAATGFTLENKAIGWFRQTPGSEREGVLCISKSGSWTYYTDSMRGRFTISRDNAENTVYLQMDSLKPEDTAVYYCATTTAGGGLCWDGTTFSRLASSWGQGTQVTVSSAAA[gap - human IgG1 Fc]
Take B2: the figures for the average neutralization titer in assay [7] and in assay [8] were 1260 nM and 252 nM, respectively.

B3: MD2611 (Fc fusion)
chain: EVQLVESGGGLVQPGGSLRLSCAVSISIFDIYAMDWYRQAPGKQRDLVATSFRDGSTNYADSVKGRFTISRDNAKNTLYLQMNSLKPEDTAVYLCHVSLYRDPLGVAGGMGVYWGKGALVTVSSGGGGSGGGGSEVQLVESGGGLVQPGGSLRLSCAATGFTLENKAIGWFRQTPGSEREGVLCISKSGSWTYYTDSMRGRFTISRDNAENTVYLQMDSLKPEDTAVYYCATTTAGGGLCWDGTTFSRLASSWGQGTQVTVSSAAA[gap - human IgG1 Fc]
Turning to B3, the average neutralization titer in assay [9] is 17.3 nM; in assay [1] it was 10.3 nM; in [4] it was 147 nM; in [8] it was 330 nM; in assay [6] it was 41.8 nM.

B4: MD2642 (Fc fusion)
chain: EVQLVESGGGLVQPGGSLRLSCAVSISIFDIYAMDWYRQAPGKQRDLVATSFRDGSTNYADSVKGRFTISRDNAKNTLYLQMNSLKPEDTAVYLCHVSLYRDPLGVAGGMGVYWGKGALVTVSSGGGGSGGGGSEVQLVESGGGLVQAGGSLKLSCAASGRTYAMGWFRQAPGKEREFVAHINALGTRTYYSDSVKGRFTISRDNAKNTEYLEMNNLKPEDTAVYYCTAQGQWRAAPVAVAAEYEFWGQGTQVTVSS[gap - human IgG1 Fc]GGGGSGGGGSEVQLVESGGGLVQPGGSLRLSCAATGFTLENKAIGWFRQTPGSEREGVLCISKSGSWTYYTDSMRGRFTISRDNAENTVYLQMDSLKPEDTAVYYCATTTAGGGLCWDGTTFSRLASSWGQGTQVTVSSGGGGSGGGGSEVQLVESGGGLVQPGGSLKLSCAASGFTFSTSWMYWLRQAPGKGLEWVSVINTDGGTYYADSVKDRFTISRDNAKDTLYLQMSSLKSEDTAVYYCAKDWGGPEPTRGQGTQVTVSS
On to B4, for which the Average neutralization titers turned out to be 30.4 nM in assay [10]; 7 nM in assay [11]; 3.5 nM in [12]; 2.7 nM in assay [13]; 1.1 nM in [14]; 4.7 nM in [15]. For the same molecule, the Average neutralization titers came out at 21.9 nM in assay [16]; 21.9 nM in assay [17]; 2.1 nM in [18]; 1.8 nM in assay [19]; 11.1 nM in assay [20]; 8.2 nM in assay [21]. Besides, the Average neutralization titers in assay [22] was found to be 13.5 nM; in [23], 3.6 nM; in [24], 24.7 nM; in assay [25] it was 16.2 nM; in assay [26] it was 7.5 nM; in assay [27], 4.8 nM. The Average neutralization titers in assay [28] was 14.2 nM; in [29], 1 nM; in [30] it was 9.7 nM; in [31], 5.2 nM; in assay [32], 12.5 nM; in assay [33], 6.3 nM. The Average neutralization titers in [34] came to 16.2 nM.

B5: MD3609 (Fc fusion)
chain: EVQLVESGGGLVQPGGSLRLSCAVSISIFDIYAMDWYRQAPGKQRDLVATSFRDGSTNYADSVKGRFTISRDNAKNTLYLQMNSLKPEDTAVYLCHVSLYRDPLGVAGGMGVYWGKGALVTVSSGGGGSGGGGSEVQLVESGGGLVQAGGSLKLSCAASGRTYAMGWFRQAPGKEREFVAHINALGTRTYYSDSVKGRFTISRDNAKNTEYLEMNNLKPEDTAVYYCTAQGQWRAAPVAVAAEYEFWGQGTQVTVSSGGGGSGGGGSEVQLVESGGGLVQPGGSLRLSCAATGFTLENKAIGWFRQTPGSEREGVLCISKSGSWTYYTDSMRGRFTISRDNAENTVYLQMDSLKPEDTAVYYCATTTAGGGLCWDGTTFSRLASSWGQGTQVTVSSGGGGSGGGGSEVQLVESGGGLVQPGGSLKLSCAASGFTFSTSWMYWLRQAPGKGLEWVSVINTDGGTYYADSVKDRFTISRDNAKDTLYLQMSSLKSEDTAVYYCAKDWGGPEPTRGQGTQVTVSSAAA[gap - human IgG1 Fc]
On to B5, for which the Average neutralization titers in assay [11] was 14 nM; in assay [12], 5.5 nM; in assay [13] it was 5.5 nM; in [14], 1.4 nM; in [15], 6.5 nM; in [16] it was 26 nM. Besides, the Average neutralization titers was 21.9 nM in assay [17]; 5.5 nM in [19]; 12.9 nM in assay [20]; 27.3 nM in assay [21]; 14.2 nM in assay [22]; 5.5 nM in assay [23]. Also, the Average neutralization titers in assay [25] was determined as 16.2 nM; in [26] it was 15.5 nM; in assay [27], 6.5 nM; in assay [28], 21.9 nM; in [30], 8.1 nM; in [31], 6.5 nM. In addition, the Average neutralization titers in [32] is 30.9 nM; in assay [33], 13 nM; in [34], 16.2 nM.
